Test results: article PMC6664820, “Novel natural and synthetic inhibitors of solute carriers SGLT1 and SGLT2” (Pharmacology Research & Perspectives, 2019)
Screen size: about 1,900 compounds; about 40 (2%) showed an effect of 50% or more. Some of the results follow.

The compounds below were run against human SGLT1 (hSGLT1) (human, UniProt P13866) (assay: primary screen, percent of control activity; higher = less effect of the substance). Settings: 50 µM.
Set-up: single well
Summary of the method: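 Single-point screen at 50 µmol/L in CHO-hSGLT1 cells, with 160 µmol/L 1-NBD-glucose in glucose-free DMEM for 90 min at 37°C. Fluorescence from isopropanol extracts was calibrated, and CHO wild-type uptake was subtracted. Data are percent of uptake without compound.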

Chain of human SGLT1 (hSGLT1) (P13866 whole entry, looked up): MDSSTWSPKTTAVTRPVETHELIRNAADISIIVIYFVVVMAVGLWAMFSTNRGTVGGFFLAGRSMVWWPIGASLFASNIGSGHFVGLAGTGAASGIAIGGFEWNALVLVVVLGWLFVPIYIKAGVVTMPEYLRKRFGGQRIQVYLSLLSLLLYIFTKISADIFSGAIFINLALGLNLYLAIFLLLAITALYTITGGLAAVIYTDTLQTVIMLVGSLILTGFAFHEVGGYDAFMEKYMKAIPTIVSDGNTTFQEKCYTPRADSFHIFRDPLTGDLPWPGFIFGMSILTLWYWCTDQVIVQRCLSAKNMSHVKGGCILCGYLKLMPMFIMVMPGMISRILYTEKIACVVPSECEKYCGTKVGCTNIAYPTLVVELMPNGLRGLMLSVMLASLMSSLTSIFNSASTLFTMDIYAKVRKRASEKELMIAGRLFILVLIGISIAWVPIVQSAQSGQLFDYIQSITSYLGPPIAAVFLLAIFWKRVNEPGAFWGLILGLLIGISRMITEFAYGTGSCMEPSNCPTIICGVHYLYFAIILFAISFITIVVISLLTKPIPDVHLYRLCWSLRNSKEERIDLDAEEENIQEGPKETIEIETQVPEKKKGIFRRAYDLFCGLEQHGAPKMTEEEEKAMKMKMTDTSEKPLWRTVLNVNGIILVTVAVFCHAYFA

Structure (SMILES) | NORMALIZED SGLT1 ACTIVITY (%)
Nc1ncnc2[nH]cnc12 | 116
Cc1cc(C2CCCCC2)n(O)c(=O)c1.NCCO | 182
COc1cccc2c1cc([N+](=O)[O-])c1c(C(=O)O)cc3c(c12)OCO3 | 96
CCCCc1nc(Cl)c(CO)n1Cc1ccc(-c2ccccc2-c2nnn[nH]2)cc1 | 249
CCN(CC)CCNC(=O)c1cc(S(C)(=O)=O)ccc1OC.Cl | 106
CN(C)C(=N)NC(=N)N.Cl | 90
CS(=O)(=O)O.OC(CCN1CCCCC1)(c1ccccc1)c1ccccc1 | 101
CC1OC1P(=O)([O-])[O-].[Ca+2] (stereo not drawn) | 120
COc1cc2c(cc1OC)[C@@H]1C(=O)c3ccc4oc(C(C)C)cc4c3O[C@@H]1CO2 | 218
CCN(CC)CCNC(=O)COc1ccc(OC)cc1.Cl | 120
C=C1C[C@]23C[C@@]1(O)CC[C@H]2[C@@]12C=C[C@H](O)[C@@](C)(C(=O)O1)[C@H]2[C@@H]3C(=O)O | 97
O=C(N[C@H](CO)[C@H](O)c1ccc([N+](=O)[O-])cc1)C(Cl)Cl | 159
C[C@@H]1CC2C3CCC4=CC(=O)C=C[C@]4(C)[C@@]3(F)[C@@H](O)C[C@]2(C)[C@@]1(O)C(=O)CO (stereo partly drawn) | 153
CC(=O)O[C@@H]1C=C[C@@]2(C)C(C[C@@H](OC(C)=O)[C@@]3(C)C4=CC(=O)O[C@@H](c5ccoc5)[C@]4(C)CCC23)C1(C)C (stereo partly drawn) | 103
CCn1cc(C(=O)O)c(=O)c2cc(F)c(N3CCNCC3)cc21 | 109
COc1ccc(-c2oc3c(CC=C(C)C)c(O[C@@H]4O[C@H](CO)[C@@H](O)[C@H](O)[C@H]4O)cc(O)c3c(=O)c2O[C@@H]2O[C@@H](C)[C@H](O)[C@@H](O)[C@H]2O)cc1 | 93
ClC1=C(Cl)C2(Cl)C3C(Cl)C=CC3C1(Cl)C2(Cl)Cl (stereo not drawn) | 57
COc1ccc2cc([C@H](C)C(=O)O)ccc2c1 | 228
NCCCC(=O)O | 108
COc1cc2c(cc1OC)C1C(=O)c3c(O)cc4c(c3OC1CO2)C=CC(C)(C)O4 (stereo not drawn) | 283
CC(=O)NC(Cc1ccccc1)C(=O)O (stereo not drawn) | 125

Structure (SMILES) | NORMALIZED SGLT1 ACTIVITY (%)
CCC[C@H]1CC2=C(C[C@@H](CC)CC3=C1C(=O)OC3=O)C(=O)OC2=O | 118
NC(=O)c1cc([N+](=O)[O-])cc([N+](=O)[O-])c1 | 114
CN[C@@H]1[C@@H](O)[C@@H](O[C@@H]2[C@@H](O)[C@H](O[C@H]3OC(CN)=CC[C@H]3N)[C@@H](N)C[C@H]2N)OC[C@]1(C)O.O=S(=O)(O)O | 102
CC1(O)CC2C(CC1O)C2(C)C (stereo not drawn) | 92
Cn1cc[nH]c1=S | 99
CN[C@H](CC(=O)O)C(=O)O | 98
C=C(C)/C=C1/C=CC(=O)C(C)=C1 | 146
CC(CN(C)C)CN1c2ccccc2Sc2ccccc21.O=C(O)C(O)C(O)C(=O)O (stereo not drawn) | 45
NC(N)=Nc1nc(CSCC/C(N)=N\S(N)(=O)=O)cs1 | 126
COc1cc(OC)c2c(=O)c(-c3ccccc3)coc2c1 | 336
CC(=O)c1ccc(O)c(CC=C(C)C)c1 | 125
CC1(C)C2CC(=O)[C@]3(C)C(CC[C@@]4(C)[C@H](c5ccoc5)OC(=O)[C@H]5O[C@]543)[C@@]2(C)C(=O)C[C@H]1O (stereo partly drawn) | 85
CCC[C@@H]1C[C@@H](C(=O)N[C@@H](C2O[C@H](SC)[C@H](O)[C@@H](O)[C@H]2O)[C@H](C)Cl)N(C)C1.Cl (stereo partly drawn) | 116
CN[C@@H]1C(OC2[C@H](O[C@H]3[C@H](O)[C@@H](O)[C@H](NC(=N)N)[C@@H](O)[C@@H]3NC(=N)N)OC(C)[C@]2(O)CO)OC(CO)C(O)C1O.O=S(=O)(O)O (stereo partly drawn) | 93
C[C@H]1O[C@H](O[C@@H]2[C@@H](O[C@H]3CC[C@@]4(C)C(CC[C@]5(C)C4CC=C4[C@@H]6CC(C)(C)CC[C@]6(C(=O)O)CC[C@]45C)[C@]3(C)CO)OC[C@@H](O)[C@H]2O)[C@@H](O)[C@H](O)[C@@H]1O (stereo partly drawn) | 128
COC(=O)/C(C)=C\CC12OC(C)(C)C3CC(C=C4C(=O)c5c(OC)c6c(c(CC=C(C)C)c5OC431)OC(C)(CCC=C(C)C)C=C6)C2=O (stereo not drawn) | 154
C1CCC(C(CC2CCCCN2)C2CCCCC2)CC1.O=C(O)/C=C\C(=O)O (stereo not drawn) | 1
CC[C@H](C)C(=O)O[C@H]1C[C@@H](C)C=C2C=C[C@H](C)[C@H](CC[C@@H]3C[C@@H](O)CC(=O)O3)[C@H]21 | 78
C=C1C([C@]2(C)C(CC(=O)OC)[C@@](C)(COC(C)=O)OC(=O)C[C@@H]2OC(C)=O)[C@@H](OC=O)[C@H](OC(=O)C(OC(C)=O)C(C)CC)[C@@]2(C)[C@H](c3ccoc3)CC(=O)C12O (stereo partly drawn) | 121
COc1ccc2c(c1)OC/C(=C\c1ccc(OC)c(O)c1)C2=O | 140
CNC(=O)Oc1cccc2c1OC(C)(C)C2 | 104

Structure (SMILES) | NORMALIZED SGLT1 ACTIVITY (%)
C[C@](N)(Cc1ccc(O)c(O)c1)C(=O)O | 107
COc1cc(OC)c2c(OC)c(-c3ccc4c(c3)OCO4)c(=O)oc2c1 | 116
O=C1c2ccc(O)c(O)c2C(=O)c2c(O)ccc(O)c21 | 127
COc1ccc2c(c1)O[C@H]1c3ccc(OC)cc3OC[C@@H]21 | 149
COC1C(O)C(O)C(O)[C@@H](O)C1O (stereo partly drawn) | 84
C[C@@H]1CC[C@H]2[C@@H](C)C(O)O[C@@H]3O[C@@]4(C)CC[C@@H]1[C@]32OO4 (stereo partly drawn) | 120
CC1(C)O[C@@H]2CC3C4C[C@H](F)C5=CC(=O)CC[C@]5(C)C4[C@@H](O)C[C@]3(C)[C@]2(C(=O)CO)O1 (stereo partly drawn) | 155
O=C(O)C1=C[C@@H](O)[C@@H](O)[C@H](O)C1 | 90
C=C(C)[C@@H]1[C@H]2OC(=O)[C@@H]1[C@]1(O)C[C@H]3O[C@]34C(=O)O[C@H]2[C@]14C | 80
COC(=O)CCCOc1ccc(Cl)cc1Cl | 212
CC(=O)[C@@]1(O)CC[C@H]2[C@@H]3C[C@H](C)C4=CC(=O)C=C[C@]4(C)[C@@]3(F)[C@@H](O)C[C@@]21C | 113
O=C(O)C(O)C(O)C(=O)O.OCc1cccnc1 (stereo not drawn) | 98
COC(=O)Nc1nc2ccc(Sc3ccccc3)cc2[nH]1 | 97
COc1ccc2c(=O)c(OC)c(-c3ccccc3)oc2c1 | 88
C=C[C@H]1CN2CC[C@H]1C[C@H]2[C@H](O)c1ccnc2ccccc12 | 77
CC(=O)O[C@]1(C(C)=O)CCC2C3C=C(C)C4=CC(=O)CCC4(C)C3CCC21C (stereo partly drawn) | 101
COc1cc2nc(N(C)CCCNC(=O)C3CCCO3)nc(N)c2cc1OC.Cl (stereo not drawn) | 162
C#C[C@]1(O)CCC2C3CCC4=CC(=O)CC[C@@H]4C3CCC21CC (stereo partly drawn) | 100
CC1(C)S[C@@H]2[C@H](NC(=O)COc3ccccc3)C(=O)N2[C@H]1C(=O)[O-].[K+] | 96
COc1ccc(-c2cc(=O)c3ccccc3o2)cc1OC | 202
C[C@H]1[C@H](C)CC[C@]2(CO)CC[C@]3(C)C(=CC[C@@H]4[C@@]5(C)CC[C@H](O)C(C)(C)[C@@H]5CC[C@]43C)[C@H]12 | 85

Structure (SMILES) | NORMALIZED SGLT1 ACTIVITY (%)
COc1ccc2c3c([nH]c2c1)C(C)=NCC3 | 155
COc1ccc(C(=O)/C=C/c2ccccc2)cc1 | 127
O=C(O)CCCCCCCC(=O)O | 98
COc1cc2c(cc1OC)C1(O)C(=O)c3ccc(O)c(C(=O)O)c3OC1CO2 (stereo not drawn) | 111
CC1=CCCC2C1(C)CCC(C)C2(C)CC/C(C)=C/Cn1c[n+](C)c2c(N)ncnc21.[Cl-] (stereo not drawn) | 58
CC1(C)C2CC(=O)O[C@@]3(C)C4=CC(=O)O[C@@H](c5ccoc5)[C@]4(C)CCC3[C@@]2(C)C=C[C@H]1O (stereo partly drawn) | 132
Cc1ccc(-c2cc(C(F)(F)F)nn2-c2ccc(S(N)(=O)=O)cc2)cc1 | 142
COc1ccc(-c2cc(=O)c3c(O)c(OC)c(O[C@@H]4O[C@H](CO[C@@H]5O[C@@H](C)[C@H](O)[C@@H](O)[C@H]5O)[C@@H](O)[C@H](O)[C@H]4O)cc3o2)cc1 | 111
Cl.N=C(N)NC(=N)Nc1ccccc1 | 136
C[C@H]1OC(n2cc(F)c(=O)[nH]c2=O)C(O)[C@@H]1O (stereo partly drawn) | 112
CN1CCCCC1c1ccc(-c2cccnc2)nc1.Cl (stereo not drawn) | 71
O=C(O)[C@@H](O)[C@H](O)[C@H](O)[C@@H](O)C(=O)O | 93
COc1nc(NC(C)C)nc(NC(C)C)n1 | 96
Nc1nc2ccc(OC(F)(F)F)cc2s1 | 446
O=C(O)c1ccccc1Nc1cccc(C(F)(F)F)c1 | 520
CC(C)=CCC[C@@H](C)[C@H]1CC[C@@]2(C)C3=C(CC[C@]12C)[C@@]1(C)CC[C@H](O)C(C)(C)[C@@H]1CC3 | 148
C=C1C2CC[C@@]3(C)[C@H](c4ccoc4)OC(=O)C[C@]13O[C@H]1C[C@H](OC(C)=O)C(C)(C)[C@H](CC(=O)OC)[C@@]21C | 81
O=C([O-])CF.[Na+] | 96
O=c1[nH]cc(F)c(=O)[nH]1 | 89
NCCCC[C@H](N[C@@H](CCc1ccccc1)C(=O)O)C(=O)N1CCC[C@H]1C(=O)O | 99
C[C@H]1O[C@@H](O[C@H]2[C@@H](O)C[C@H](O[C@H]3[C@@H](O)C[C@H](O[C@H]4CC[C@@]5(C)[C@H](CC[C@@H]6[C@@H]5C[C@@H](O)[C@]5(C)[C@@H](C7=CC(=O)OC7)CC[C@]65O)C4)O[C@@H]3C)O[C@@H]2C)C[C@H](O)[C@@H]1O | 135
